Consider 41 molecules from patent US20250066451A1 (SWEDISH ORPHAN BIOVITRUM AB PUBL, published 2025).

Numbering of substitutions follows the chain as printed.

Sequences and labels used below:
T1: Human IL-1R-I-Fc (Creative BioMart cat. no. IL1RI-771H) (human, UniProt P14778 18-332, limits assumed)
T1 construct: bought protein; also called hIL-1R-I-Fc; hIL-1RI-Fc
T1 sequence (looked up): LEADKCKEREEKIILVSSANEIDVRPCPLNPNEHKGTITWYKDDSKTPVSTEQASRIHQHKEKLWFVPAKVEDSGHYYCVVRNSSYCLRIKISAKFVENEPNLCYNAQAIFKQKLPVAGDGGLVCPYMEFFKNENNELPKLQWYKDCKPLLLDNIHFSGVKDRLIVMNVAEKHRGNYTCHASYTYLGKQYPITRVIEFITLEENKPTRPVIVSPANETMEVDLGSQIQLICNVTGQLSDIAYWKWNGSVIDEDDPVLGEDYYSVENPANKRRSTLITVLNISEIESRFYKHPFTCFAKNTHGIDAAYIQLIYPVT

T2: human IL-1R-I (human, UniProt P14778 18-332, limits assumed)
T2 construct: bought recombinant protein; also called hIL-1R-I; hIL-1RI
T2 sequence (looked up): T1 sequence (looked up)

B1: Z15811-ABD (designed binder)
chain: AQHDEALEVDAKYAKEVEEAQMEIFELPNLTRKQYTAFIRKLLDDPSQSSELLSEAKKLNDSQAPKVDYVLAEAKVLANRELDKYGVSDYYKNLINNAKTVEGVKALIDEILAALPYVPG
notes: periplasmic extract, Z-ABD fusion
B2: Z15929-ABD (designed binder)
chain: B1 chain with V17T, E19R, E26A, K33R
B3: Z15886-ABD (designed binder)
chain: B1 chain with E19R, E26A
B4: Z15862-ABD (designed binder)
chain: B1 chain with E19I, E26A
B5: Z15813-ABD (designed binder)
chain: B1 chain with E18D, Q21Y, F25Y, E26R
B6: Z15923-ABD (designed binder)
chain: B1 chain with V17T, E18Y, E19Y, E26T, L43F
B7: Z15932-ABD (designed binder)
chain: B1 chain with E26I
B8: Z15927-ABD (designed binder)
chain: B1 chain with V17I, E26Y
B9: Z15876 (His6-Z) (designed binder)
chain: MGSSHHHHHHLQVDAKYAKEIEAAQMEIFGLPNLTRKQYTAFIRKLFDDPSQSSELLSEAKKLNDSQAPKVD
B10: Z18920 (His6-Z) (designed binder)
chain: B9 chain with I21T, A23E, A24I, G30R, K37R, F47L
B11: Z18856 (His6-Z) (designed binder)
chain: B9 chain with I21L, A23E, A24I, G30H, K37R, F47L
B12: Z19158 (His6-Z) (designed binder)
chain: B9 chain with I21T, A23E, A24I, G30A, K37R, F47L
B13: Z18817 (His6-Z) (designed binder)
chain: B9 chain with I21V, A23E, A24I, G30R, K37R
B14: Z19143 (His6-Z) (designed binder)
chain: B9 chain with I21V, A23E, A24I, M26L, G30H, K37R, R44I, F47L
B15: Z18762 (His6-Z) (designed binder)
chain: B9 chain with I21L, A24I, G30R, K37R, F47L
B16: Z19180 (His6-Z) (designed binder)
chain: B9 chain with I21V, A23I, A24I, G30H, K37R, F47L
B17: Z19182 (His6-Z) (designed binder)
chain: B9 chain with I21V, A24I, G30Q, K37R, F47L
B18: Z18888 (His6-Z) (designed binder)
chain: B9 chain with I21V, A24I, G30H, F47L
B19: Z18769 (His6-Z) (designed binder)
chain: B9 chain with I21V, A23E, A24V, G30H, K37R, F47L
B20: Z18866 (His6-Z) (designed binder)
chain: B9 chain with A23E, A24I, G30H, F47L
B21: Z18882 (His6-Z) (designed binder)
chain: B9 chain with I21V, A23E, A24V, G30D, K37R, F47L
B22: Z18799 (His6-Z) (designed binder)
chain: B9 chain with I21V, A24I, G30H
B23: Z18850 (His6-Z) (designed binder)
chain: B9 chain with A23E, A24I, G30A, K37R, F47L
B24: Z18853 (His6-Z) (designed binder)
chain: B9 chain with A23E, A24I, G30Y, K37R
B25: Z19147 (His6-Z) (designed binder)
chain: B9 chain with I21L, A23E, A24I, G30Y, K37R, F47L
B26: Z18770 (His6-Z) (designed binder)
chain: B9 chain with I21T, A23R, A24V, G30S, K37R, F47L
B27: Z15932 (His6-Z) (designed binder)
chain: B9 chain with I21V, A23E, G30I, F47L
B28: Z18893 (His6-Z) (designed binder)
chain: B9 chain with A23E, A24I, F47L
B29: Z19170 (His6-Z) (designed binder)
chain: B9 chain with I21V, A23E, A24I, G30E, K37R, F47L
B30: Z19151 (His6-Z) (designed binder)
chain: B9 chain with I21V, A23D, A24I, M26L, G30A, K37R, F47L
B31: Z18863 (His6-Z) (designed binder)
chain: B9 chain with I21V, A23E, A24V, K37R, F47L
B32: Z18875 (His6-Z) (designed binder)
chain: B9 chain with A24I, G30H, K37R, F47L
B33: Z18800 (His6-Z) (designed binder)
chain: B9 chain with A23E, A24I, G30R, K37R, F47L
B34: Z19075 (His6-Z) (designed binder)
chain: B9 chain with I21V, A23I, A24I, M26Y, F47L
B35: Z18898 (His6-Z) (designed binder)
chain: B9 chain with I21L, A24I, G30Y, K37R, T40V, F47L
B36: Z19302 (Z-ABD) (designed binder)
chain: B1 chain with V17I, E19A, A20V, E26H
B37: Z19304 (Z-ABD) (designed binder)
chain: B1 chain with V17T, E19Q, A20V, E26H
B38: Z19305 (Z-ABD) (designed binder)
chain: B1 chain with V17T, E19A, A20V, E26R, K33R
B39: Z19182 (Z-ABD) (designed binder)
chain: B1 chain with E19A, A20I, E26Q, K33R
B40: Z19183 (Z-ABD) (designed binder)
chain: B1 chain with V17I, E19D, F25Y, E26D, K33R
B41: Z19303 (Z-ABD) (designed binder)
chain: B1 chain with V17T, E19A, A20V, E26T, K33R

One assay has as its target T1, Human IL-1R-I-Fc (Creative BioMart cat. …). Kind of assay: ELISA, hIL-1R-I-Fc titration on Z-ABD. For orientation: In an ELISA, binding on a coated surface is turned into a signal by an enzyme label.
Broadly, the EC50 is the midpoint of the concentration-response curve. Regarding B1, the midpoint of the response, the EC50, lay at 250 pM.

On to B2, for which the response was half-maximal at 240 pM (EC50).

Molecule B3 displayed an EC50 of 260 pM.

For B4, the EC50 was found to be 210 pM.

Turning to B5, the midpoint of the response, the EC50, lay at 350 pM.

B6: a half-maximal response (EC50) required 240 pM.

For B7, the EC50 was 230 pM.

B8 yielded an EC50 of 220 pM. This EC50 and that of the molecule before are within 1.5-fold of each other.

For another assay, the target named is T2, human IL-1R-I. The experiment in a line: SPR; hIL-1R-I immobilized, His6-Z injected. On the technique in general: In SPR one partner is held on a chip, and binding of the other changes the refractive index at the surface.
By Kd is commonly meant the equilibrium constant for the complex coming apart. Read a high Kd as a looser complex. One may read the koff as the first-order rate constant of dissociation. Read a low koff as a long-lived complex. Broadly, the kon is a measure of how fast the partners come together. B9 displayed a dissociation constant Kd of 800 pM, a koff of 0.0041 s⁻¹ and a kon of 5.2e+06 M⁻¹ s⁻¹.

B10 returned an equilibrium dissociation constant (Kd) of 150 pM, a koff of 0.0055 s⁻¹ and a kon of 3.6e+07 M⁻¹ s⁻¹.

B11 came in with a Kd of 120 pM, a koff of 0.0057 s⁻¹ and a kon of 4.6e+07 M⁻¹ s⁻¹.

For B12, the Kd was 160 pM, the koff was 0.0044 s⁻¹ and the kon came to 2.7e+07 M⁻¹ s⁻¹.

With B13, the Kd was determined as 170 pM, the koff turned out to be 0.0048 s⁻¹ and the kon stood at 2.8e+07 M⁻¹ s⁻¹.

B14 returned a Kd of 220 pM, a koff of 0.0039 s⁻¹ and a kon of 1.7e+07 M⁻¹ s⁻¹.

For the molecule B15, the Kd turned out to be 130 pM, the koff was 0.0052 s⁻¹ and the kon came out at 4.2e+07 M⁻¹ s⁻¹.

Consider B16, for which the Kd is 140 pM, the koff worked out at 0.0031 s⁻¹ and the kon stood at 2.2e+07 M⁻¹ s⁻¹.

For the molecule B17, binding was put at a Kd of 260 pM.

B18 came in with a Kd of 160 pM, a koff of 0.0029 s⁻¹ and a kon of 1.8e+07 M⁻¹ s⁻¹.

Molecule B19 came in with a Kd of 160 pM, a koff of 0.0031 s⁻¹ and a kon of 1.9e+07 M⁻¹ s⁻¹.

As for B20, the affinity, expressed as Kd, was 120 pM; the off-rate constant (koff) was determined as 0.0042 s⁻¹; the kon was 3.6e+07 M⁻¹ s⁻¹.

With B21, the affinity, expressed as Kd, was 250 pM; the off-rate constant (koff) is 0.003 s⁻¹; the kon stood at 1.2e+07 M⁻¹ s⁻¹.

Consider B22, for which the dissociation constant (Kd) worked out at 180 pM, the koff is 0.0045 s⁻¹ and the kon worked out at 2.6e+07 M⁻¹ s⁻¹.

The molecule B23 gave a Kd of 170 pM, an off-rate (koff) of 0.0023 s⁻¹ and a kon of 1.3e+07 M⁻¹ s⁻¹.

Consider B24, for which the dissociation constant Kd came to 140 pM, the koff stood at 0.003 s⁻¹ and the kon came out at 2.2e+07 M⁻¹ s⁻¹.

Consider B25, for which the Kd stood at 150 pM, the koff was determined as 0.0043 s⁻¹ and the kon was 2.8e+07 M⁻¹ s⁻¹.

In the case of B26, the Kd is 170 pM, the koff stood at 0.005 s⁻¹ and the on-rate constant (kon) amounted to 3e+07 M⁻¹ s⁻¹.

Regarding B27, binding was put at a Kd of 640 pM, the koff was determined as 0.011 s⁻¹ and the kon was determined as 1.8e+07 M⁻¹ s⁻¹.

For B28, the Kd amounted to 270 pM, the koff came to 0.0024 s⁻¹ and the kon turned out to be 8.6e+06 M⁻¹ s⁻¹.

As to B29, binding was characterised by a dissociation constant (Kd) of 200 pM, the koff was found to be 0.0043 s⁻¹ and the kon worked out at 2.1e+07 M⁻¹ s⁻¹.

B30 had a Kd of 250 pM, a koff of 0.007 s⁻¹ and a kon of 2.8e+07 M⁻¹ s⁻¹.

B31 yielded a Kd of 220 pM, a koff of 0.0048 s⁻¹ and a kon of 2.2e+07 M⁻¹ s⁻¹.

Molecule B32 gave a dissociation constant (Kd) of 120 pM, a koff of 0.0028 s⁻¹ and a kon of 2.4e+07 M⁻¹ s⁻¹.

In turn, B33 yielded a dissociation constant Kd of 140 pM, an off-rate constant (koff) of 0.0025 s⁻¹ and a kon of 1.8e+07 M⁻¹ s⁻¹.

B34 displayed a Kd of 450 pM, a koff of 0.0064 s⁻¹ and a kon of 1.4e+07 M⁻¹ s⁻¹.

Molecule B35 returned a Kd of 66 pM, a koff of 0.0044 s⁻¹ and a kon of 6.7e+07 M⁻¹ s⁻¹.

Another assay concerns the target T2, human IL-1R-I. Kind of assay: SPR screening; Z-ABD captured on anti-ABD, 100 nM hIL-1R-I injected.
On to B36, for which the affinity, expressed as Kd, was 3200 pM.

B37 had a Kd of 4500 pM.

Consider B38, for which binding was put at a Kd of 3800 pM.

With B39, the Kd was 2800 pM. The Kd values of the last two molecules are within 1.5-fold of each other.

For the molecule B40, the dissociation constant Kd worked out at 12000 pM.

Molecule B41 displayed a Kd of 4000 pM. This Kd lies about 3-fold lower than the previous one.
